The full ranking holds about 2,900 compounds; the median of “NF-kB SEAP reporter activity, fold change vs agonist alone” is about 0.99, and the highest 2% start at about 2.6. Some of the results follow.

For test [1], the system named is RAW-Dual. Kind of test: NF-kB SEAP reporter activity, fold change vs agonist alone; higher = enhanced NF-kB activity. An outline of the steps:
(§1)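 Supernatant from RAW-Dual macrophages was read after 20 hours for IRF by QuantiLuc luminescence and for NF-κB by QuantiBlue absorbance at 620 nm. The cells (50,000 cells/well in DMEM, 384-well plates, 37 °C, 5% CO2) had received 50 nL of library stock by pin tool and, 1 h later, a PRR agonist. Reporter activity is expressed relative to agonist-alone wells as fold change, and wells were flagged cytotoxic if IncuCyte confluency was under 70% of agonist controls in both mask sets.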

In test [2] the test system is RAW-Dual. Kind of test: NF-kB SEAP reporter activity, fold change vs agonist alone; cytotoxicity flag (confluency mask): not cytotoxic; higher = enhanced NF-kB activity. The procedure, abridged: as §1
The test system of test [3] is RAW-Dual. Kind of test: NF-kB SEAP reporter activity, fold change vs agonist alone; cytotoxicity flag (confluency mask): cytotoxic (confluency <70% of control); higher = enhanced NF-kB activity. The procedure, abridged:
as §1

Setting [4] is: library stock concentration (final ~1000-fold dilution): 10 mM, cytotoxicity flag (confluency mask): not cytotoxic, agonist: Imiquimod (TLR7) […].
The mark [5] stands for this setting: library stock concentration (final ~1000-fold dilution): 10 mM, cytotoxicity flag (confluency mask): not cytotoxic, agonist: MPLA (TLR4) […].
Where [6] appears, read: agonist: ODN 1826 (TLR9) 0.5 ug/mL.
[7] abbreviates: agonist: Pam2CSK4 (TLR2/6) 0.1 ug/mL.
Setting [8] is: agonist: Pam3CSK4 (TLR2/1) 0.1 ug/mL.
Where [9] appears, read: library stock concentration (final ~1000-fold dilution): 10 mM, cytotoxicity flag (confluency mask): cytotoxic (confluency <70% of control), agonist: Imiquimod (TLR7) […].
The mark [10] stands for this setting: library stock concentration (final ~1000-fold dilution): 10 mM, cytotoxicity flag (confluency mask): cytotoxic (confluency <70% of control), agonist: MPLA (TLR4) […].

On to `CNCc1cc(-c2ccccc2F)n(S(=O)(=O)c2cccnc2)c1.O=C(O)/C=C/C(=O)O`, for which the “NF-kB SEAP reporter activity” value in test [1] (setting [4]) stood at 0.604; in test [1] (setting [5]) it was 1.02.
Regarding `CNCc1cc(-c2ccccc2F)n(S(=O)(=O)c2cccnc2)c1.O=C(O)/C=C/C(=O)O` (library stock concentration (final ~1000-fold dilution): 10 mM), the “NF-kB SEAP reporter activity” value in test [2] (agonist: LPS (TLR4) 0.1 ug/mL) was 1; in test [2] (setting [6]), 0.458; in test [2] (setting [7]) it was 0.812; in test [2] (setting [8]) it was 0.591.
For `O=C(Nc1nc2cccc(-c3ccc(CN4CCS(=O)(=O)CC4)cc3)n2n1)C1CC1` (library stock concentration (final ~1000-fold dilution): 10 mM), in that order: 0.515, 1.2, 0.994 and 0.405.
For `O=C(Nc1nc2cccc(-c3ccc(CN4CCS(=O)(=O)CC4)cc3)n2n1)C1CC1`, the entries for the “NF-kB SEAP reporter activity” value in test [1] (setting [4]) and in test [1] (setting [5]) were 0.661 and 1.02, respectively.
Turning to `Cc1cc(CN2CCN(c3c(Br)cnc4[nH]c(-c5ccc(N6CCN(C)CC6)cc5)nc34)CC2)no1`, the “NF-kB SEAP reporter activity” value was 1.06 in test [1] (library stock concentration (final ~1000-fold dilution): 2 mM, cytotoxicity flag (confluency mask): not cytotoxic, agonist: Imiquimod (TLR7) […]) and 1 in test [1] (library stock concentration (final ~1000-fold dilution): 2 mM, cytotoxicity flag (confluency mask): not cytotoxic, agonist: MPLA (TLR4) […]).
Regarding `Cc1cc(CN2CCN(c3c(Br)cnc4[nH]c(-c5ccc(N6CCN(C)CC6)cc5)nc34)CC2)no1` (library stock concentration (final ~1000-fold dilution): 2 mM), the “NF-kB SEAP reporter activity” value in test [2] (agonist: LPS (TLR4) 0.1 ug/mL) was 1.36; in test [2] (setting [6]), 0.61; in test [2] (setting [7]), 1.24; in test [2] (setting [8]), 1.41.
For `O=c1cc(-c2ccccc2)oc2cc(O)ccc12` (library stock concentration (final ~1000-fold dilution): 10 mM), in that order: 1.2, 1.3, 1.43 and 0.809.
`O=c1cc(-c2ccccc2)oc2cc(O)ccc12`: the “NF-kB SEAP reporter activity” value in test [1] (setting [5]) was 1.23.
For `CC(=O)Oc1ccccc1C(=O)O` (library stock concentration (final ~1000-fold dilution): 10 mM), the “NF-kB SEAP reporter activity” value in test [2] (agonist: LPS (TLR4) 0.1 ug/mL) was 1.02; in test [2] (setting [6]) it was 0.998; in test [2] (setting [7]), 1.06; in test [2] (setting [8]), 1.11.
For `CC(=O)Oc1ccccc1C(=O)O`, the “NF-kB SEAP reporter activity” value in test [1] (setting [4]) worked out at 0.97; in test [1] (setting [5]), 1.03.
For the molecule `O=C(O)c1ccc(-c2c[nH]c3ncc(-c4ccccc4)cc23)cc1C1CCCC1`, the “NF-kB SEAP reporter activity” value in test [1] (setting [4]) stood at 0.374; in test [1] (setting [5]), 1.16.
Turning to `O=C(O)c1ccc(-c2c[nH]c3ncc(-c4ccccc4)cc23)cc1C1CCCC1` (library stock concentration (final ~1000-fold dilution): 10 mM), the “NF-kB SEAP reporter activity” value in test [2] (agonist: LPS (TLR4) 0.1 ug/mL) was found to be 1.15; in test [2] (setting [6]), 0.388; in test [2] (setting [7]) it was 0.646; in test [2] (setting [8]), 0.497.
On to `Cc1ncc(CO)c(CO)c1O`, for which the figures for the “NF-kB SEAP reporter activity” value in test [1] (setting [4]) and in test [1] (setting [5]) were 0.463 and 0.799, respectively.
As to `Cc1ncc(CO)c(CO)c1O` (library stock concentration (final ~1000-fold dilution): 10 mM), the “NF-kB SEAP reporter activity” value is 1.31 in test [2] (agonist: LPS (TLR4) 0.1 ug/mL), 0.734 in test [2] (setting [6]), 0.939 in test [2] (setting [7]) and 1.04 in test [2] (setting [8]).
Turning to `OC(c1ccccc1)(c1ccccc1)C12CC[N+](CCOCc3ccccc3)(CC1)CC2`, the figures for the “NF-kB SEAP reporter activity” value in test [1] (setting [4]) and in test [1] (setting [5]) were 1.09 and 0.997, respectively.
Regarding `OC(c1ccccc1)(c1ccccc1)C12CC[N+](CCOCc3ccccc3)(CC1)CC2` (library stock concentration (final ~1000-fold dilution): 10 mM), the “NF-kB SEAP reporter activity” value in test [2] (agonist: LPS (TLR4) 0.1 ug/mL) worked out at 1.15; in test [2] (setting [6]), 1.01; in test [2] (setting [7]), 0.809; in test [2] (setting [8]) it was 1.05.
Taken in the same sequence, the figures for `COc1cc2nccc(Oc3ccc(NC(=O)NC4CC4)c(Cl)c3)c2cc1C(N)=O.CS(=O)(=O)O` (library stock concentration (final ~1000-fold dilution): 10 mM) were 1.19, 0.54, 0.605 and 0.353.
As to `COc1cc2nccc(Oc3ccc(NC(=O)NC4CC4)c(Cl)c3)c2cc1C(N)=O.CS(=O)(=O)O`, the “NF-kB SEAP reporter activity” value in test [1] (setting [5]) was 1.07.
On to `COc1cc2c(cc1-c1c(C)noc1C)ncc1[nH]c(=O)n(C(C)c3ccccn3)c12` (stereo unspecified), for which the “NF-kB SEAP reporter activity” value in test [1] (setting [9]) is 2.61; in test [1] (setting [10]), 2.46.
Take `COc1cc2c(cc1-c1c(C)noc1C)ncc1[nH]c(=O)n(C(C)c3ccccn3)c12` (stereo unspecified) (library stock concentration (final ~1000-fold dilution): 10 mM): the “NF-kB SEAP reporter activity” value came out at 4.87 in test [3] (agonist: LPS (TLR4) 0.1 ug/mL), 2.55 in test [3] (setting [6]), 0.529 in test [3] (setting [7]) and 1.93 in test [3] (setting [8]).
On to `O=c1oc2cc(O)ccc2c2ccc(O)cc12` (library stock concentration (final ~1000-fold dilution): 10 mM), for which the “NF-kB SEAP reporter activity” value in test [2] (agonist: LPS (TLR4) 0.1 ug/mL) worked out at 1.08; in test [2] (setting [6]), 0.575; in test [2] (setting [7]), 0.257; in test [2] (setting [8]) it was 0.455.
For `O=c1oc2cc(O)ccc2c2ccc(O)cc12`, the “NF-kB SEAP reporter activity” value in test [1] (setting [4]) amounted to 1.26; in test [1] (setting [5]), 1.58.
Turning to `Cc1cc(Nc2ncc3c(n2)N(C)C(=O)N(c2cc(NC(=O)c4cccc(C(F)(F)F)c4)ccc2C)C3)n(C)n1`, the “NF-kB SEAP reporter activity” value in test [1] (setting [9]) was 0.128; in test [1] (setting [10]) it was 0.265.
Turning to `Cc1cc(Nc2ncc3c(n2)N(C)C(=O)N(c2cc(NC(=O)c4cccc(C(F)(F)F)c4)ccc2C)C3)n(C)n1` (library stock concentration (final ~1000-fold dilution): 10 mM), the “NF-kB SEAP reporter activity” value was determined as 0.283 in test [3] (agonist: LPS (TLR4) 0.1 ug/mL), 0.186 in test [3] (setting [6]), 0.0623 in test [3] (setting [7]) and 0.124 in test [3] (setting [8]).
In the case of `CN1CCN(C2=Nc3ccccc3Oc3ccc(Cl)cc32)CC1.O=C(O)CCC(=O)O`, the “NF-kB SEAP reporter activity” value was determined as 1.02 in test [1] (setting [4]) and 1.04 in test [1] (setting [5]).
Regarding `CN1CCN(C2=Nc3ccccc3Oc3ccc(Cl)cc32)CC1.O=C(O)CCC(=O)O` (library stock concentration (final ~1000-fold dilution): 10 mM), the “NF-kB SEAP reporter activity” value in test [2] (agonist: LPS (TLR4) 0.1 ug/mL) stood at 1.05; in test [2] (setting [6]), 0.754; in test [2] (setting [7]), 0.645; in test [2] (setting [8]), 0.886.
With `CCN(CC)CC(O)CNc1ccc(NCC2CO2)c2c1C(=O)c1ccccc1C2=O` (stereo unspecified), the “NF-kB SEAP reporter activity” value in test [1] (setting [9]) came to 0.314; in test [1] (setting [10]), 0.521.
In the case of `CCN(CC)CC(O)CNc1ccc(NCC2CO2)c2c1C(=O)c1ccccc1C2=O` (stereo unspecified) (library stock concentration (final ~1000-fold dilution): 10 mM), the “NF-kB SEAP reporter activity” value in test [3] (agonist: LPS (TLR4) 0.1 ug/mL) is 0.382; in test [3] (setting [6]) it was 0.203; in test [3] (setting [7]) it was 0.134; in test [3] (setting [8]), 0.195.
For the molecule `O=C1NC(=O)/C(=C\c2ccc(-c3ccc(F)cc3)o2)S1`, the entries for the “NF-kB SEAP reporter activity” value in test [1] (setting [4]) and in test [1] (setting [5]) were 0.656 and 0.708, respectively.
`O=C1NC(=O)/C(=C\c2ccc(-c3ccc(F)cc3)o2)S1` (library stock concentration (final ~1000-fold dilution): 10 mM): the “NF-kB SEAP reporter activity” value in test [2] (agonist: LPS (TLR4) 0.1 ug/mL) was 0.676; in test [2] (setting [6]), 0.6; in test [2] (setting [7]), 0.477; in test [2] (setting [8]), 0.683.
Consider `Cl.O=c1[nH]ccc2c(S(=O)(=O)N3CCCNCC3)cccc12` (library stock concentration (final ~1000-fold dilution): 10 mM), for which the “NF-kB SEAP reporter activity” value in test [2] (agonist: LPS (TLR4) 0.1 ug/mL) is 1.22; in test [2] (setting [6]), 0.968; in test [2] (setting [7]), 1.05; in test [2] (setting [8]) it was 1.23.
Take `Cl.O=c1[nH]ccc2c(S(=O)(=O)N3CCCNCC3)cccc12`: the figures for the “NF-kB SEAP reporter activity” value in test [1] (setting [4]) and in test [1] (setting [5]) were 1 and 0.986, respectively.
For the molecule `O=[N+]([O-])c1cncn1CCN1CCOCC1` (library stock concentration (final ~1000-fold dilution): 10 mM), the “NF-kB SEAP reporter activity” value in test [2] (agonist: LPS (TLR4) 0.1 ug/mL) stood at 0.953; in test [2] (setting [6]) it was 0.947; in test [2] (setting [7]), 1.02; in test [2] (setting [8]) it was 0.84.
Consider `O=[N+]([O-])c1cncn1CCN1CCOCC1`, for which the “NF-kB SEAP reporter activity” value in test [1] (setting [4]) came out at 0.914; in test [1] (setting [5]) it was 1.09.
For `C=CC(=O)Nc1cc(Nc2nccc(-c3c[nH]c4ccccc34)n2)c(OC)cc1N(C)CCN(C)C` (library stock concentration (final ~1000-fold dilution): 10 mM), the “NF-kB SEAP reporter activity” value in test [2] (agonist: LPS (TLR4) 0.1 ug/mL) turned out to be 1.46; in test [2] (setting [6]), 0.861; in test [2] (setting [7]), 0.904; in test [2] (setting [8]), 1.22.
As to `C=CC(=O)Nc1cc(Nc2nccc(-c3c[nH]c4ccccc34)n2)c(OC)cc1N(C)CCN(C)C`, the results for the “NF-kB SEAP reporter activity” value in test [1] (setting [4]) and in test [1] (setting [5]) were 0.96 and 1.03, respectively.
